Source: PubChem BioAssay AID493208 (National Center for Advancing Translational Sciences (NCATS), 2011)
About 340 (0.77%) of roughly 44,000 compounds were called active. About 5% were inconclusive and are not listed. The call rests on the fitted dose curve; in most records, active means well fitted inhibition curve with a large enough effect; inconclusive means small, poorly fitted or top-dose-only effect; inactive means flat fitted curve, though single readings scatter. The list shows a part of the results.

Experiment: Acumen qHTS Assay for Inhibitors of the mTORC1 Signaling Pathway in MEF (Tsc2-/-, p53-/-) Cells: Sytravon;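 further: plate controls were DMSO for no effect and rapamycin for full effect; nearly all actives have a fitted effect of over 50% in size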
Details: phospho-rpS6 immunofluorescence/PI, 24 h; series mostly up to 38.3 µM; activity change, negative = inhibition: at the top concentration
How it was run: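 Read-out: phospho-S6 Alexa-488 intensity over PI intensity per well, scored as % active cells using thresholds from rapamycin (7.5 nM) and DMSO controls. Tsc2-/-, p53-/- MEFs exposed to compound for 24 h; PI cell count recorded as viability.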

Activity change, negative = inhibition, inactive:
COc1ccc(OC)c(/C=C(\C#N)c2nc(-c3ccc(F)cc3)cs2)c1 -0.846%
Cc1nc(S(=O)(=O)N2CCN(c3ccccc3F)CC2)cn1C 0.341%
Nc1c(-c2nc(-c3ccc4c(c3)OCO4)cs2)c2ccccn2c1C(=O)c1ccc(Cl)cc1 -5.37%
O=C(O)c1ccc(NC(=O)c2ccc(Br)c(S(=O)(=O)N3CCCC3)c2)cc1 -14.5%
CCOc1ccc(NC(=O)Cc2c[nH]c3ccccc23)cc1 -3.33%
Cc1ccc(SCc2nc(-c3ccc(C(=O)NCC(C)c4ccccc4)cc3)oc2C)cc1 (stereo not drawn) -1.07%
CCCC12CN3CC(C)(CN(C1)C3c1ccc(OCc3ccccc3)cc1)C2=O (stereo not drawn) -0.009%
Cc1cccc(CNC(=O)CN2C(=O)CCn3nc(-c4cn(C)c5ccccc45)cc32)c1 0%
CCN(c1ccccc1)S(=O)(=O)c1ccc(NC(=O)c2nc(SC(C)C)ncc2Cl)cc1 -0.166%
CCOC(=O)c1cnc2ccc(OCC)cc2c1Nc1ccc(OCc2ccccc2Cl)cc1 2.41%
Cc1cccc(CNC(=O)CN2C(=O)CSc3c2c(C)nn3-c2ccccc2)c1 -3.31%
COc1cc(C(CC(=O)Nc2ncccc2C)N2Cc3ccccc3C2=O)cc(OC)c1OC (stereo not drawn) -0.44%
CC(=O)c1cc(-c2ccc(F)cc2)n(CCC(=O)Nc2nc3ccc(C)cc3s2)c1C 0.745%
COc1ccc(-c2nc3cc(NC(=O)c4ccc(C)cc4)ccc3o2)cc1Cl 18.1%
CCOc1ccc(Br)cc1C1NC(=O)c2c(sc3c2CCN(C)C3)N1 (stereo not drawn) -5.95%
O=C(OCc1cc(=O)n2nc(C3CC3)sc2n1)c1ccc(NC(=O)c2ccccc2F)cc1 0%
Cc1ccc(C(=O)N2CCC(C)CC2)cc1NC(=O)c1nsc2ccccc12 5.85%
CC1CCN(S(=O)(=O)c2ccc3nc(N4CCN(c5ccc(F)cc5)CC4)ccc3c2)CC1 -2.38%
COc1ccc(CCNc2ncnc3onc(C)c23)c(OC)c1 0.688%
Cc1ccc(S(=O)(=O)c2cc3cc(C(=O)Nc4ccc(C)cc4C)ccc3oc2=O)cc1 -0.0801%
CC1CCCCN1CCCNC(=O)Cn1ncc2c3ccccc3n(C)c2c1=O (stereo not drawn) 1.85%
CCc1ccccc1NC(=O)c1ccc(F)c(S(=O)(=O)N2CCN(c3cccc(Cl)c3)CC2)c1 2.75%
COc1cccc(C(=O)N(Cc2ccc(C)o2)C2CCS(=O)(=O)C2)c1 (stereo not drawn) 2.45%
COc1ccc(-c2cc(C(F)(F)F)nc(NCc3ccc(F)cc3)n2)cc1 0.101%
CCOc1ccc(NC(=O)CSc2oc(-c3ccc(C)cc3)nc2S(=O)(=O)c2ccc(C)cc2)cc1 0%
Cc1ccc(O)c(-c2n[nH]c3c2C(c2ccc(F)cc2)N(Cc2ccco2)C3=O)c1 (stereo not drawn) 4.54%
O=C(COCc1cc(-c2cccs2)on1)Nc1cc(C(F)(F)F)ccc1Cl -12.6%
Cc1cc(C)c(NC(=O)CSc2nc3c([nH]c4ccccc43)c(=O)n2C)c(C)c1 0.601%
COc1ccc(CCNC(=O)c2ccc(Cn3c(=O)[nH]c4cc(OC)c(OC)cc4c3=O)cc2)cc1OC 3.29%
CCCCNC(=O)CN1CCN(c2ncc(NC(=O)c3ccc(Cl)cc3)cc2C(=O)O)CC1 1.92%
COc1cc(NC(=O)C2CCN(c3nc4ccccc4nc3C(F)(F)F)CC2)cc(OC)c1 -11.5%
CCc1ccccc1N(CC)C(=O)C1CCN(c2ncnc3c2nc2n3CCCCC2)CC1 -2.98%
CCCOc1cccc(C2c3c(oc4ccc(F)cc4c3=O)C(=O)N2c2nc(C)c(C(C)=O)s2)c1 (stereo not drawn) 0.484%
O=c1c2ccccc2n(Cc2cccc(Cl)c2)c(=O)n1Cc1ccccc1 -0.869%
CCN(C(=O)Cn1ncc2c(=O)oc3ccccc3c21)c1ccccc1F -10.2%
CN1CCN(C(CNC(=O)c2c(F)cccc2F)c2ccc3c(c2)OCO3)CC1 (stereo not drawn) -17.1%
Cc1cccc(N2CCN(C(=O)c3cc4ccc5cccnc5c4[nH]3)CC2C)c1 (stereo not drawn) -10.3%
CCC(C)NC(=O)c1sc2nc3n(c(=O)c2c1C)CCC3 (stereo not drawn) 9.21%
COCCc1nn2c(=O)cc(COC(=O)c3ccc(Br)cc3)nc2s1 5.55%
COCCCNc1nc(NCc2ccc(C)cc2)c2cnn(C)c2n1 0.763%
O=c1oc2ccccc2cc1-c1nc(-c2cccs2)no1 -7.26%
COc1ccccc1-c1nc(SCC(=O)c2ccc(Cl)cc2)n[nH]1 -18.9%
CCC(=O)Nc1sc2c(c1C(=O)Nc1ccc(Br)cc1)CCCCC2 10.7%
COc1ccccc1NC(=O)c1sc2nc(C)c(C(=O)Nc3ccc(C)cc3C)c(-c3ccccc3Cl)c2c1N 0%
COc1cc(OC)cc(C(=O)NCCc2csc(-c3ccc(C(F)(F)F)cc3)n2)c1 -11.2%
Cc1ccc2oc(=O)c3cc(C(=O)NCCc4ccc(Cl)cc4)sc3c2c1 3.36%
CCS(=O)(=O)N1CCc2cc(C(=O)NCc3ccccc3Cl)ccc21 -4.04%
COc1ccc(NC(=O)C(C(C)C)N2Cc3ccccc3C2=O)cc1 (stereo not drawn) -23.1%
CCCCc1nn2c(=O)cc(COC(=O)c3ccccc3C)nc2s1 -5.55%
Cc1ccc(-n2nc3c(=O)n(C(C)C(=O)NCc4ccccc4C)nc(C)c3c2C)cc1 (stereo not drawn) -2.48%
CCc1ccccc1NC(=O)NC(CC)Cn1nnc2ccccc2c1=O (stereo not drawn) -3.38%
Cc1ccc(C)c(NC(=O)CSc2nc(=O)n(Cc3ccncc3)c3c2CCC3)c1 -13%
CC(=O)N1c2ccc(S(=O)(=O)NCCC(=O)N(C)Cc3ccccc3)cc2CC1C (stereo not drawn) -1.98%
COC(=O)c1cc2sc(C)cc2n1Cc1nc(-c2ccc(C)cc2)oc1C 1.03%
Cc1cc2n(n1)CCC(=O)N2Cc1ccc(C(=O)Nc2cccc(C(F)(F)F)c2)cc1 -0.712%
COc1ccc(-c2noc(CSc3nc4ccccc4[nH]3)n2)cc1 -0.683%
CC(C)c1ccc(Nc2c(-c3ccc(N(C)C)cc3)nc3cnccn23)cc1 18.1%
Cc1ccc(Nc2c(-c3ccc(C)cc3)nc3c(C)cccn23)cc1 -2.33%
O=C(NCCc1ccc(Cl)cc1)C(=O)NCC(c1cccs1)S(=O)(=O)c1ccccc1 (stereo not drawn) -18.6%
CCc1cccc(C)c1NC(=O)CCS(=O)(=O)c1ccc2c(c1)oc(=O)n2C 0%
COc1cccc(CN(C(=O)c2oc3ccccc3c2C)C2CCS(=O)(=O)C2)c1 (stereo not drawn) -9.01%
CNC(=O)c1c(NC(=O)Cc2coc3ccc(OC)cc23)sc2c1CCCC2 -3.15%
COc1ccc(C2CC(=O)Oc3c2c(=O)n(C)c2ccccc32)c(OC)c1OC (stereo not drawn) -1.26%
O=C(COc1ccccc1)Nc1ccc2nc(SCC(=O)N3CCCC3)sc2c1 -9.27%
CCOc1ccc(NC(=O)CS(=O)(=O)Cc2nc(-c3ccc(C)cc3)oc2C)cc1 0%
CCOC(=O)c1ccc(NC(=O)c2ccc(-c3cccc(Cl)c3C)o2)cc1 9.33%
CCOc1ccc(CCNC(=O)c2cc3c(-c4ccccc4F)nn(C)c3s2)cc1OCC -0.828%
COc1ccc(C2c3c(-c4ccc(F)cc4)n[nH]c3C(=O)N2c2ccccc2)cc1OC (stereo not drawn) 4.81%
Cc1ccccc1CNC(=O)CCSCc1cnn(-c2ccccc2)c1-n1cccc1 -1.25%
COc1ccc(C2c3c(oc4ccccc4c3=O)C(=O)N2c2nc(C)c(C)s2)cc1 (stereo not drawn) -4.44%
Cc1ccc(S(=O)(=O)N(CC(=O)Nc2c(C)cccc2C)c2cccc(Cl)c2)cc1 0.705%
Cc1nc2nc(C)c(CCC(=O)NCCc3ccccc3)c(C)n2n1 2.09%
O=C(Cn1cc(S(=O)(=O)Cc2ccccc2Cl)c2ccccc21)Nc1cccc(C(F)(F)F)c1 -14.4%
CCOc1ccc(C(NC(=O)c2cc(OC)c(OC)c(OC)c2)c2cc(Cl)c3cccnc3c2O)cc1 (stereo not drawn) -4.6%
Cc1ccc2nc(CN3CCN(S(=O)(=O)c4ccccc4)CC3)oc2c1 2.62%
CC(C)Oc1cccc(C(=O)Nc2ccc3oc(-c4ccccc4)nc3c2)c1 1.92%
CCc1ccc(NC(=O)CSc2nc3ccccc3c(=O)n2CCC(=O)NC2CCCCC2)cc1 0.474%
COC(=O)c1cc(C)nc2c1c(=O)nc(SCc1c(C)cc(C)cc1C)n2C1CC1 0%
CCC(=O)N1c2ccc(S(=O)(=O)N3CCCCCC3)cc2CC1C (stereo not drawn) -0.941%
CCC(Sc1nc2cc3c(cc2c(=O)n1CCCC(=O)NCc1ccc2c(c1)OCO2)OCO3)C(=O)NCCCOC (stereo not drawn) -5.53%
Cc1ccc(NC(=O)COc2ccc(-c3nn(C)c(=O)c4ccccc34)cc2)c(C)c1 -19.9%
Nc1c(-c2nc(-c3ccccc3Cl)no2)nnn1-c1ccccc1F -0.69%
COC(=O)c1cc2oc3ccccc3c2n1CC(=O)Nc1ccc(N(C)C)cc1 1.29%
CCC(=O)Nc1nnc(S(=O)(=O)N2CCCCCC2)s1 -3.35%
Cn1cc(S(=O)(=O)N2CCCCC2)cc1C(=O)NCc1ccc(Cl)cc1 -0.969%
COc1ccc(NC(=O)C(NS(=O)(=O)c2cccc3nsnc23)c2ccccc2)cc1 (stereo not drawn) -10.5%
CCOc1cc(-c2nnc(SCC(=O)NCCCOC)nc2-c2ccc(OC)c(OCC)c2)ccc1OC -11.3%
CCCCSc1nnc2c(n1)OC(c1ccc(C)s1)Nc1ccccc1-2 (stereo not drawn) 12.7%
CCC(CC)c1nn2cc(-c3ccccc3)nc2s1 0.759%
Cc1ccc(N2CCN(S(=O)(=O)c3cc(Br)cc4c3N(C(=O)C3CC3)CC4)CC2C)cc1 (stereo not drawn) 12%
CCS(=O)(=O)N1CC(=O)N(c2ccc(C)c(C)c2)C(C)(C(=O)NC2CCCCCC2)C1 (stereo not drawn) 0.616%
COc1ccc(-c2cn3c(n2)sc2cc(C(=O)N4CCCCC4)ccc23)cc1 -11.7%
COc1ccc(N2CC(NC(=O)Cc3cccs3)CC2=O)cc1OC (stereo not drawn) -13.5%
CCCCOC(=O)c1ccc(NC(=O)/C(C#N)=C/c2ccc(C)o2)cc1 10.7%
CCCCNS(=O)(=O)c1ccc2nc(-c3cccnc3)cc(C(=O)NCCCOCC)c2c1 -0.634%
Cc1ccc(NC(=O)COCc2cc(-c3cccs3)on2)cc1Cl -2.49%
CCOc1ccccc1CNC(=O)CCn1cccn1 0.675%
Cc1[nH]c2ccccc2c1C(=O)C(=O)NC1CC(=O)N(c2ccccc2)C1 (stereo not drawn) -1.06%
